# Results taken from the supplement of paper PMC12217912.
# The other results are listed elsewhere or left out. The full chains were built here from the parent and the listed change. Values near 0.05 are background.
# B1: TEV protease; numbered along this chain (parent)
# chain: MGESLFKGPRDYNPISSSICHLTNESDGHTTSLYGIGFGPFIITNKHLFRRNNGTLVVQSLHGVFKVKDTTTLQQHLVDGRDMIIIRMPKDFPPFPQKLKFREPQREERICLVTTNFQTKSMSSMVSDTSCTFPSGDGIFWKHWIQTKDGQCGSPLVSTRDGFIVGIHSASNFTNTNNYFTSVPKNFMELLTNQEAQQWVSGWRLNADSVLWGGHKVFMVKPEEPFQPVKEATQL
# Variants of: B1
# Assay: raw area under fraction-flipped curve 0-4 h after induction (AUC4h, not background-subtracted), DNA-recorder readout of cleavage of the substrate (dimensionless); higher = more cleavage of the substrate by the protease variant
# Settings: temperature: 34 °C; time window: 0-4 h after rhamnose induction
# 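Further: Bxb1 expression induced with 0.2% (w/v) L-rhamnose at OD600 near 0.5, cultures sampled hourly, flipped fraction per protease–substrate barcode pair counted by paired-end Illumina sequencing.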
Variant,area with substrate EALYFQS,area with substrate ECLYFQS,area with substrate EDLYFQS,area with substrate EGLYFQS,area with substrate EHLYFQS,area with substrate EILYFQS,area with substrate EKLYFQS,area with substrate EMLYFQS,area with substrate EQLYFQS,area with substrate ERLYFQS,area with substrate ESLYFQS,area with substrate EVLYFQS,area with substrate EWLYFQS,area with substrate EYLYFQS,area with substrate EFLYFQS,area with substrate ELLYFQS,area with substrate EELYFQS,area with substrate ETLYFQS,area with substrate EPLYFQS
MGESLFKGPRDYNPISSSICHLTNESDGHTTSLYGIGFGPFIITNKHLFRRNNGTLVVQSLHGVFKVKDTTTLQQHLVDGRDMIIIRMPKDFPPFPQKLKFREPQREERICLVTTNFQTKSMSSMVSDTSCTFPSGDGIFWKHWIQTKDGQCGSPLVSTRDGFIVGIHSASNFTNTNNYNTSVPKNFMELLTNQEAQQWVSGWRLNADSVLWGGHKVFMVKPEEPFQPVKEATQL [F180N],0.0528,0.059,0.0508,0.0849,0.048,0.0351,0.0394,0.0515,0.0545,0.0594,0.0487,0.0573,0.0347,0.061,–,–,–,–,–
MGESLFKGPRDYNPISSSICHLTNESDGHTTSLYGIGFGPFIITNKHLFRRNNGTLVVQSLHGVFKVKDTTTLQQHLVDGRDMIIIRMPKDFPPFPQKLKFREPQREERICLVTTNFQTKSMSSMVSDTSCTFPSGDGIFWKHWIQTKDGQCGSPLVSTRDGFIVGIHSASNFTNTNNYFTSHPKNFMELLTNQEAQQWVSGWRLNADSVLWGGHKVFMVKPEEPFQPVKEATQL [V183H],0.0605,0.0539,0.0608,0.0635,0.0705,0.0658,0.0463,–,0.0504,0.0544,0.0658,0.0581,0.0649,–,0.0474,0.06,–,–,–
MGESLFKGPRDYNPISSSICHLTNESDGHTTSLYGIGFGPFIITNKHLFRRNNGTLVVQSLHGVFKVKDTTTLQQHLVDGRDMIIIRMPKDFPPFPQKLKFREPQREERICLVTTNFQTKSMSSMVSDTSCTFPSGDGIFWKHWIQTKDGQCGSPLVSTRDGFIVGIHSASNFTNTNNYFTSVPGNFMELLTNQEAQQWVSGWRLNADSVLWGGHKVFMVKPEEPFQPVKEATQL [K185G],0.0954,0.113,0.12,0.102,0.12,–,0.122,0.129,0.145,–,0.106,0.104,–,–,0.0891,0.102,0.143,0.124,–
MGESLFKGPRDYNPISSSICHLTNESDGHTTSLYGIGFGPFIITNKHLFRRNNGTLVVQSLHGVFKVKDTTTLQQHLVDGRDMIIIRMPKDFPPFPQKLKFREPQREERICLVTTNFQTKSMSSMVSDTSCTFPSGDGIFWKHWIQTKDGQCGSPLVSTRDGFIVGIHSASNFTNTNNYFTSVPKNMMELLTNQEAQQWVSGWRLNADSVLWGGHKVFMVKPEEPFQPVKEATQL [F187M],0.113,0.106,0.138,–,0.102,0.0874,0.0871,0.124,0.099,0.0618,0.102,–,0.108,0.108,0.117,0.0802,–,–,0.109
MGESLFKGPRDYNPISSSICHLTNESDGHTTSLYGIGFGPFIITNKHLFRRNNGTLVVQSLHGVFKVKDTTTLQQHLVDGRDMIIIRMPKDFPPFPQKLKFREPQREERICLVTTNFQTKSMSSMVSDTSCTFPSGDGIFWKHWIQTKDGQCGSPLVSTRDGFIVGIHSASNFTNTNNYFTSVPKNFPELLTNQEAQQWVSGWRLNADSVLWGGHKVFMVKPEEPFQPVKEATQL [M188P],0.107,0.144,0.118,0.0906,0.0787,0.086,–,0.114,–,–,–,0.0932,0.0714,0.129,–,0.101,0.119,–,0.0559
MGESLFKGPRDYNPISSSICHLTNESDGHTTSLYGIGFGPFIITNKHLFRRNNGTLVVQSLHGVFKVKDTTTLQQHLVDGRDMIIIRMPKDFPPFPQKLKFREPQREERICLVTTNFQTKSMSSMVSDTSCTFPSGDGIFWKHWIQTKDGQCGSPLVSTRDGFIVGIHSASNFTNTNNYFTSVPKNFMEMLTNQEAQQWVSGWRLNADSVLWGGHKVFMVKPEEPFQPVKEATQL [L190M],0.122,0.107,0.134,–,–,0.107,–,0.0892,0.118,0.101,0.096,–,–,–,0.0727,–,–,–,–
MGESLFKGPRDYNPISSSICHLTNESDGHTTSLYGIGFGPFIITNKHLFRRNNGTLVVQSLHGVFKVKDTTTLQQHLVDGRDMIIIRMPKDFPPFPQKLKFREPQREERICLVTTNFQTKSMSSMVSDTSCTFPSGDGIFWKHWIQTKDGQCGSPLVSTRDGFIVGIHSASNFTNTNNYFTSVPKNFMEYLTNQEAQQWVSGWRLNADSVLWGGHKVFMVKPEEPFQPVKEATQL [L190Y],0.0846,0.0814,0.0948,0.0824,–,0.0875,0.078,0.0785,0.0981,0.0793,0.093,0.0901,0.0927,0.082,0.106,–,0.104,–,–
MGESLFKGPRDYNPISSSICHLTNESDGHTTSLYGIGFGPFIITNKHLFRRNNGTLVVQSLHGVFKVKDTTTLQQHLVDGRDMIIIRMPKDFPPFPQKLKFREPQREERICLVTTNFQTKSMSSMVSDTSCTFPSGDGIFWKHWIQTKDGQCGSPLVSTRDGFIVGIHSASNFTNTNNYFTSVPKNFMELATNQEAQQWVSGWRLNADSVLWGGHKVFMVKPEEPFQPVKEATQL [L191A],0.135,0.0686,0.0991,0.0649,–,0.0795,0.0718,0.0687,0.0688,0.0615,0.0652,0.0404,–,–,0.0649,0.0648,0.0658,0.0669,0.062
MGESLFKGPRDYNPISSSICHLTNESDGHTTSLYGIGFGPFIITNKHLFRRNNGTLVVQSLHGVFKVKDTTTLQQHLVDGRDMIIIRMPKDFPPFPQKLKFREPQREERICLVTTNFQTKSMSSMVSDTSCTFPSGDGIFWKHWIQTKDGQCGSPLVSTRDGFIVGIHSASNFTNTNNYFTSVPKNFMELFTNQEAQQWVSGWRLNADSVLWGGHKVFMVKPEEPFQPVKEATQL [L191F],0.1,0.104,0.153,–,0.107,0.0973,0.0812,0.0992,0.103,0.0912,0.101,0.0819,0.105,0.0887,0.103,0.0885,0.104,0.109,–
MGESLFKGPRDYNPISSSICHLTNESDGHTTSLYGIGFGPFIITNKHLFRRNNGTLVVQSLHGVFKVKDTTTLQQHLVDGRDMIIIRMPKDFPPFPQKLKFREPQREERICLVTTNFQTKSMSSMVSDTSCTFPSGDGIFWKHWIQTKDGQCGSPLVSTRDGFIVGIHSASNFTNTNNYFTSVPKNFMELKTNQEAQQWVSGWRLNADSVLWGGHKVFMVKPEEPFQPVKEATQL [L191K],0.0668,0.0559,0.113,0.0538,0.069,0.0329,0.0497,0.0608,0.0533,0.058,0.0659,0.0575,0.0591,0.0444,0.0324,0.0615,–,0.0512,0.0556
MGESLFKGPRDYNPISSSICHLTNESDGHTTSLYGIGFGPFIITNKHLFRRNNGTLVVQSLHGVFKVKDTTTLQQHLVDGRDMIIIRMPKDFPPFPQKLKFREPQREERICLVTTNFQTKSMSSMVSDTSCTFPSGDGIFWKHWIQTKDGQCGSPLVSTRDGFIVGIHSASNFTNTNNYFTSVPKNFMELYTNQEAQQWVSGWRLNADSVLWGGHKVFMVKPEEPFQPVKEATQL [L191Y],0.0695,0.058,0.0782,0.083,–,0.0658,0.0604,0.0683,0.0691,0.0611,0.0653,0.0619,0.0911,–,0.0642,0.0627,0.0651,–,–
MGESLFKGPRDYNPISSSICHLTNESDGHTTSLYGIGFGPFIITNKHLFRRNNGTLVVQSLHGVFKVKDTTTLQQHLVDGRDMIIIRMPKDFPPFPQKLKFREPQREERICLVTTNFQTKSMSSMVSDTSCTFPSGDGIFWKHWIQTKDGQCGSPLVSTRDGFIVGIHSASNFTNTNNYFTSVPKNFMELLMNQEAQQWVSGWRLNADSVLWGGHKVFMVKPEEPFQPVKEATQL [T192M],0.145,0.107,0.105,–,0.105,0.111,0.15,0.0792,0.0806,0.0957,0.094,0.103,0.102,0.116,0.0697,–,0.0921,0.115,–
MGESLFKGPRDYNPISSSICHLTNESDGHTTSLYGIGFGPFIITNKHLFRRNNGTLVVQSLHGVFKVKDTTTLQQHLVDGRDMIIIRMPKDFPPFPQKLKFREPQREERICLVTTNFQTKSMSSMVSDTSCTFPSGDGIFWKHWIQTKDGQCGSPLVSTRDGFIVGIHSASNFTNTNNYFTSVPKNFMELLTNFEAQQWVSGWRLNADSVLWGGHKVFMVKPEEPFQPVKEATQL [Q194F],0.141,0.0982,0.101,–,0.0749,0.0834,–,–,0.108,0.125,0.0932,–,–,–,–,–,0.115,–,–
MGESLFKGPRDYNPISSSICHLTNESDGHTTSLYGIGFGPFIITNKHLFRRNNGTLVVQSLHGVFKVKDTTTLQQHLVDGRDMIIIRMPKDFPPFPQKLKFREPQREERICLVTTNFQTKSMSSMVSDTSCTFPSGDGIFWKHWIQTKDGQCGSPLVSTRDGFIVGIHSASNFTNTNNYFTSVPKNFMELLTNQKAQQWVSGWRLNADSVLWGGHKVFMVKPEEPFQPVKEATQL [E195K],0.112,0.0969,0.112,0.0865,0.0868,0.0973,0.0788,0.119,–,0.0909,0.0913,0.0846,–,–,0.105,0.0846,–,0.0804,0.111
MGESLFKGPRDYNPISSSICHLTNESDGHTTSLYGIGFGPFIITNKHLFRRNNGTLVVQSLHGVFKVKDTTTLQQHLVDGRDMIIIRMPKDFPPFPQKLKFREPQREERICLVTTNFQTKSMSSMVSDTSCTFPSGDGIFWKHWIQTKDGQCGSPLVSTRDGFIVGIHSASNFTNTNNYFTSVPKNFMELLTNQEADQWVSGWRLNADSVLWGGHKVFMVKPEEPFQPVKEATQL [Q197D],0.119,0.0939,0.0956,0.0665,–,0.0547,0.0962,0.0821,–,0.0918,0.0753,0.0693,–,–,–,–,0.12,0.109,–
MGESLFKGPRDYNPISSSICHLTNESDGHTTSLYGIGFGPFIITNKHLFRRNNGTLVVQSLHGVFKVKDTTTLQQHLVDGRDMIIIRMPKDFPPFPQKLKFREPQREERICLVTTNFQTKSMSSMVSDTSCTFPSGDGIFWKHWIQTKDGQCGSPLVSTRDGFIVGIHSASNFTNTNNYFTSVPKNFMELLTNQEAQQEVSGWRLNADSVLWGGHKVFMVKPEEPFQPVKEATQL [W199E],0.0606,0.0633,0.0681,0.052,0.0688,0.0677,0.0665,–,0.0629,–,0.0691,0.0541,–,0.0529,–,0.0729,0.0655,–,–
MGESLFKGPRDYNPISSSICHLTNESDGHTTSLYGIGFGPFIITNKHLFRRNNGTLVVQSLHGVFKVKDTTTLQQHLVDGRDMIIIRMPKDFPPFPQKLKFREPQREERICLVTTNFQTKSMSSMVSDTSCTFPSGDGIFWKHWIQTKDGQCGSPLVSTRDGFIVGIHSASNFTNTNNYFTSVPKNFMELLTNQEAQQNVSGWRLNADSVLWGGHKVFMVKPEEPFQPVKEATQL [W199N],0.0907,0.0583,0.0799,–,–,0.037,0.0455,0.0544,0.0639,0.0729,0.0673,–,–,–,0.0645,0.0704,–,–,0.0619
MGESLFKGPRDYNPISSSICHLTNESDGHTTSLYGIGFGPFIITNKHLFRRNNGTLVVQSLHGVFKVKDTTTLQQHLVDGRDMIIIRMPKDFPPFPQKLKFREPQREERICLVTTNFQTKSMSSMVSDTSCTFPSGDGIFWKHWIQTKDGQCGSPLVSTRDGFIVGIHSASNFTNTNNYFTSVPKNFMELLTNQEAQQWVRGWRLNADSVLWGGHKVFMVKPEEPFQPVKEATQL [S201R],0.103,0.105,0.129,0.0872,0.0938,0.0956,0.116,–,0.114,0.114,0.111,0.0937,0.0965,0.079,0.096,0.0848,–,–,–
